Measured values from PubChem BioAssay AID588795 (National Center for Advancing Translational Sciences (NCATS), 2011).
About 1,400 (0.36%) of roughly 390,000 compounds were called active. The shares of active, inactive and inconclusive entries below differ from those in the screen. The call rests on the fitted dose curve; in most records, active means well fitted inhibition curve with a large enough effect; inconclusive means small, poorly fitted or top-dose-only effect; inactive means no such curve, though single readings can be large or run the other way. Potencies beside an inconclusive call are fits to weak or partial responses and may not hold up.

The compounds below were run against Flap endonuclease 1 (Homo sapiens) (UniProt P39748) (assay: qHTS Assay for the Inhibitors of Human Flap endonuclease 1 (FEN1).). Conditions: Recombinant FEN1 flap cleavage, fluorescence, 15 min; series mostly up to 114 µM; activity change, negative = inhibition: at the top concentration.
In short: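 Steps: FEN1 (10 nM) dispensed; compound added by pin tool; 15 min at room temperature; substrate added to 50 nM final; reads at 0 min and 15 min; data normalized and fitted (four-parameter Hill).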
Further: nearly all actives have a fitted effect of over 65% in size.
On the % scale 0 is the no-effect control and ±100 the full control effect; potency means the concentration at half of the fitted maximal effect; tags describe the fitted curve by direction and shape.

Sequence of UniProt P39748 (P39748 whole entry, looked up): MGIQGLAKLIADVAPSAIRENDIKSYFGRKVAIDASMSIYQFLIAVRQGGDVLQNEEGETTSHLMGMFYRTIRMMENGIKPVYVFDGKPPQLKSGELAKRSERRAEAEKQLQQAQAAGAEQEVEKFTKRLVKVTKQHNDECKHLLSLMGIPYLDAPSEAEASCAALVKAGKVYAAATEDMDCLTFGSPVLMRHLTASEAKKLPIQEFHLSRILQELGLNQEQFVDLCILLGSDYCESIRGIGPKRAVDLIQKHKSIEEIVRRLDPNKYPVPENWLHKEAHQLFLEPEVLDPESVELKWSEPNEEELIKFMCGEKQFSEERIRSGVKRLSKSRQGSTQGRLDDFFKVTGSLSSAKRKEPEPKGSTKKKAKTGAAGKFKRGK

Row | Structure (SMILES) | Potency | activity change, negative = inhibition
1 | COC(=O)c1cc(OC)c(OC)cc1NC(=O)c1c(-c2ccccc2Cl)noc1C | inconclusive: 79.4 µM [inhibitor, partial curve, poor fit] | –
2 | COc1ccc(NC(=O)CCCSc2nc(-c3ccco3)cc(C(F)(F)F)n2)cc1OC | inconclusive: 89.1 µM [inhibitor, partial curve] | –
3 | COc1ccc2sc(N(Cc3cccnc3)C(=O)c3ccc4c(c3)OCCO4)nc2c1 | inconclusive: 50.1 µM [inhibitor, partial curve, poor fit] | –
4 | Oc1ccccc1-c1nc(NCCN2CCOCC2)c2ccccc2n1 | inconclusive: 79.4 µM [inhibitor, single point] | –
5 | COc1ccc2[nH]c3c(c2c1)CCN1C(=O)C(CC(=O)NCCC2=CCCCC2)C[C@H](C(=O)N(C(C)C)C(C)C)[C@@]31C (some centres undefined) | inconclusive: 89.1 µM [inhibitor, partial curve, poor fit] | –
6 | COC(=O)c1c(N)sc2c1CCN(c1ncc(C(F)(F)F)cc1Cl)C2 | inconclusive: 50.1 µM [inhibitor, partial curve, poor fit] | –
7 | COc1cc(/C=C2/CCC/C(=C\c3cc(O)c(OC)c(Cl)c3)C2=O)cc(Cl)c1O | inconclusive: 39.8 µM [inhibitor, partial curve, poor fit] | –
8 | COc1ccc(/C=N/Nc2nn3cnnc3c3ccccc23)cc1 | inconclusive: 56.2 µM [inhibitor, partial curve] | –
9 | Oc1c(CN2CCN(c3ccc(F)cc3)CC2)cc(Cl)c2cccnc12 | inconclusive: 12.6 µM [inhibitor, full curve, poor fit] | –
10 | C=C[C@H](CC(C)C)N(Cc1ccccc1)S(=O)(=O)N(Cc1ccccc1)[C@H](C=C)CC(C)C | – | inactive: 2.08%
11 | CCCOc1ccc(CCC(=O)N/N=C/c2ccco2)cc1 | – | inactive: 6.4%
12 | Cc1cccc(/C=C/c2cccs2)n1 | – | inactive: -3.48%
13 | COc1ccc(-c2csc(NC(=O)CSc3nc(C)nc4sc(C(=O)O)c(C)c34)n2)cc1 | inconclusive: 15.8 µM [inhibitor, partial curve, poor fit] | –
14 | COc1ccccc1NC(=O)C1=C(C)Nc2nc(SCc3ccccc3Cl)nn2C1c1ccccn1 (centres undefined) | – | inactive: -11.4%
15 | O=C(CSc1nc2nc(-c3cccs3)cc(C(F)(F)F)c2c(=O)[nH]1)C(F)(F)F | – | inactive: -21%
16 | Fc1ccc(/C=C/c2nccc3ccccc23)cc1 | inconclusive: 44.7 µM [inhibitor, partial curve, poor fit] | –
17 | Cc1cccc(OCCCC(=O)Nc2ccc(Cl)c(S(=O)(=O)N3CCOCC3)c2)c1 | inconclusive: 89.1 µM [inhibitor, single point] | –
18 | O=C1NN(c2ccccc2)C(=O)/C1=C\c1cccn1-c1ccc(Cl)c([N+](=O)[O-])c1 | – | inactive: 2.39%
19 | COc1ccc(Cl)cc1NC(=O)Cn1c(=O)n(Cc2cccs2)c(=O)c2cccnc21 | – | inactive: -11.7%
20 | CC1=C(C(=O)O)N2C(=O)[C@@H](NC(=O)C(N)c3ccccc3)[C@H]2SC1 (some centres undefined) | inconclusive: 37.7 µM [inhibitor, partial curve, poor fit] | –
21 | Cc1nc2ccc(S(=O)(=O)N(CC(=O)Nc3cccc(Cl)c3)Cc3ccccc3)cc2s1 | – | inactive: -21%
22 | COc1cc(/C=C2\C(=O)NN(c3ccc(C)cc3)C2=O)cc([N+](=O)[O-])c1O | – | inactive: -4.82%

Row | Structure (SMILES) | Potency | activity change, negative = inhibition
23 | O=C(N/N=C/c1cc(Cl)ccc1O)c1ccncc1 | inconclusive: 89.1 µM [inhibitor, single point] | –
24 | COc1ccc2[nH]c3c(N4CCc5ccccc5C4)ncnc3c2c1 | inconclusive: 28.2 µM [inhibitor, full curve] | –
25 | COc1ccc2c(c1)c(=Cc1ccc(N(C)C)cc1)c1cc(-c3ccccc3)[n+](C)n12 | active: 4.47 µM | –
26 | Cc1ccc2c3c(cccc13)-c1ccccc1C2=O | inconclusive: 15.8 µM [inhibitor, full curve] | –
27 | O=C(O)C1Nc2c(O)cc(Cl)c([N+](=O)[O-])c2C2C=CCC12 (centres undefined) | inconclusive: 10 µM [inhibitor, partial curve, poor fit] | –
28 | COc1cccc2sc3ccc(NCCC4CCCN4C)cc3c(=O)c12 (centres undefined) | inconclusive: 50.1 µM [inhibitor, partial curve] | –
29 | COc1ccc(-c2oc3cc(O)c(OC)c(O)c3c(=O)c2OC)cc1O | inconclusive: 35.5 µM [inhibitor, partial curve, poor fit] | –
30 | Cc1ccc(C)c(Cn2c3ccccc3c3cnn(CC(=O)NC4CCC(C)CC4)c(=O)c32)c1 (centres undefined) | – | inactive: -7.01%
31 | O=C(CSC1=Nc2ccccc2N=C(c2ccc(F)cc2)C1)Nc1cccc(C(F)(F)F)c1 | inconclusive: 56.2 µM [inhibitor, partial curve, poor fit] | –
32 | CS(=O)(=O)c1ccc(-c2sc3ccccc3c2C(=O)N2CCN(c3ccc(F)cc3)CC2)cc1 | inconclusive: 39.8 µM [inhibitor, single point] | –
33 | NC(=O)c1ccsc1NC(=O)COC(=O)c1ccncc1 | – | inactive: -17.2%
34 | CCOC(=O)c1ccc(N2C(=O)c3n[nH]c(-c4ccco4)c3C2c2ccc(OCC)cc2)cc1 (centres undefined) | inconclusive: 22.4 µM [inhibitor, partial curve, poor fit] | –
35 | CN1CCN(CCCNC(=O)c2cc3c(=O)n(C)c4ccccc4c3s2)CC1 | inconclusive: 20 µM [inhibitor, full curve] | –
36 | Cc1ccc(S(=O)(=O)N2CCCc3cc(NS(=O)(=O)c4cc(F)ccc4F)ccc32)cc1 | – | inactive: 5.68%
37 | CCOC(=O)N1CCC(NC(=O)c2cc3c(-c4ccc(OC)c(OC)c4)nn(C)c3s2)CC1 | inconclusive: 22.4 µM [inhibitor, partial curve, poor fit] | –
38 | Cc1noc(C)c1S(=O)(=O)N(C)C[C@H]1Oc2c(NC(=O)NC3CCCCC3)cccc2C(=O)N([C@H](C)CO)C[C@@H]1C | – | inactive: -1.87%
39 | COc1cc2nc(SCC(=O)Nc3c(C)cc(C)cc3C)n3nc(CCn4c(C)nc5ccccc54)nc3c2cc1OC | – | inactive: 0.137%
40 | CCCCCCCCCCCCN1[C@@H](CC(C)=O)c2cc(C(F)(F)F)ccc2S1(=O)=O | inconclusive: 89.1 µM [inhibitor, partial curve, poor fit] | –
41 | CCOc1ccc(NCc2nc3ccccc3n2CCOc2ccccc2)cc1 | inconclusive: 89.1 µM [inhibitor, partial curve] | –
42 | N#Cc1c(-c2ccccc2)cc(-c2ccc(O)cc2)nc1N | inconclusive: 79.4 µM [inhibitor, partial curve, poor fit] | –
43 | O=C(Nc1ccc(F)cc1)c1ccccc1Oc1ccc(C(F)(F)F)cc1[N+](=O)[O-] | inconclusive: 50.1 µM [inhibitor, partial curve, poor fit] | –
44 | CCc1cccc(C)c1NC(=O)c1cc(S(=O)(=O)NCc2ccccc2Cl)ccc1F | – | inactive: -16.1%

Row | Structure (SMILES) | Potency | activity change, negative = inhibition
45 | COc1cccc(C(=O)NCC2CCN(c3ccc(S(=O)(=O)N4CCOCC4)cc3)CC2)c1 | – | inactive: 14.3%
46 | COc1ccc(C2c3c(ncn(CCN4CCOCC4)c3=N)Oc3ccc4ccccc4c32)cc1OC (centres undefined) | inconclusive: 89.1 µM [inhibitor, single point] | –
47 | C#Cc1ccc([C@H]2C=C(C(=O)OCC=C)O[C@@H](OCc3ccc(CO)cc3)C2)cc1 | inconclusive: 50.1 µM [inhibitor, partial curve, poor fit] | –
48 | COc1ccc(C(=O)N/C(=C\c2cn(C)c3ccccc23)C(=O)OCC(C)C)cc1 | inconclusive: 89.1 µM [inhibitor, single point] | –
49 | CCOC(=O)C1Nc2ccccc2C2c3ccccc3CC12 (centres undefined) | inconclusive: 39.8 µM [inhibitor, partial curve, poor fit] | –
50 | Cc1cc2nc3ccc(N(C)C)cc3nc2cc1N | inconclusive: 7.08 µM [inhibitor, full curve, poor fit] | –
51 | S=C(c1nc2ccccc2[nH]1)N1CCOCC1 | – | inactive: -0.198%
52 | Cc1ccc(-n2nc(CO)c(C(=O)NC(C)CCCc3ccccc3)n2)cc1C (centres undefined) | – | inactive: -1.75%
53 | COc1ccc(Oc2c(O)c3ccccc3n(C)c2=O)cc1 | inconclusive: 14.1 µM [inhibitor, partial curve, poor fit] | –
54 | CN(C)c1ccc(/C=C(/NC(=O)c2ccccc2)C(=O)N/N=C/c2ccc([N+](=O)[O-])c(O)c2)cc1 | inconclusive: 79.4 µM [inhibitor, partial curve, poor fit] | –
55 | COc1ccc(C)cc1NC(=O)Cn1c(=O)cc(C)c2c(C)nn(C)c21 | – | inactive: 18%
56 | O=C(NCCCN1CCOCC1)C(=O)N/N=C/c1c2ccccc2cc2ccccc12 | active: 39.8 µM | –
57 | O=C(O)CCCN1C(=O)/C(=C\C(Cl)=C\c2ccccc2)SC1=S | inconclusive: 79.4 µM [inhibitor, partial curve] | –
58 | CCC(C)N=Cc1c(Nc2ccccc2)nc2c(C)cccn2c1=O (centres undefined) | inconclusive: 20 µM [inhibitor, partial curve, poor fit] | –
59 | N#C/C(C(=O)Nc1ccc(Cl)cc1)=C(/S)Nc1ccccc1 | inconclusive: 89.1 µM [inhibitor, single point] | –
60 | O=C(NC(=S)NC1CCN(Cc2ccccc2)CC1)c1ccc(F)cc1 | inconclusive: 50.1 µM [inhibitor, partial curve, poor fit] | –
61 | CCn1c(=O)c2c(O)cc(=O)oc2c2ccccc21 | inconclusive: 70.8 µM [inhibitor, single point] | –
62 | O=Cc1cn(CC(=O)N2CCCc3ccccc32)c2ccccc12 | – | inactive: 8.33%
63 | C=CCN1C(=O)C(Cc2ccc(C)cc2)S/C1=N/N=C/c1ccco1 (centres undefined) | inconclusive: 89.1 µM [inhibitor, single point] | –
64 | COc1cc(-c2cc(=O)c3c(O)cc(O)cc3o2)ccc1O | inconclusive: 35.5 µM [inhibitor, full curve, poor fit] | –
